Laboratory results published in US5532263A, “Benzothiopyranoindazole antitumor agents” (priority 1995, dated 1996).
Where a name gives a salt, the structure may show the parent alone. The name of at least one read-out is uncertain.

Test system: Pancreatic Ductal Adenocarcinoma #03 (Panc 03)
Assay: Murine antitumor activity versus Pancreatic Ductal Adenocarcinoma #03
Assay type: in vivo
Details: tumor bearing mice, cures excluded; calculation based on tumor growth delay; versus Panc 03; cures require >4.5 log kill
From the text: Murine Antitumor Activaty Versus Pancreatic Ductal Adenocarcinoma #03.
This is tumor growth inhibition, where T is the medium tumor burden in the treatment group times 100 at evaluation and C is the medium tumor burden in the control group at evaluation.
This is the maximum tolerated total dose administered intravenously in mg/kg.
This means the long term cures, the number of mice in the treatment group with no palpable tumor evidents after a minimum of 86 days/total number in treatment group. […]

Structure (SMILES) | LCK (log10 cell kill) [log10]
CCN(CC)CCn1nc2c3c(c(CNC=O)ccc31)Sc1ccccc1-2 [Ex 5] | 2.4
CCN(CC)CCn1nc2c3c(c(CNC=O)ccc31)Sc1ccc(OC)cc1-2 [Ex 6] | 3.6
CCN(CC)CCn1nc2c3c(c(CN)ccc31)Sc1ccc(OC)cc1-2 [Ex 9] | > 4.5
CCN(CC)CCn1nc2c3c(c(CNC)ccc31)Sc1ccccc1-2 [Ex 10, N-methyl-2-[(2-(Diethylamino)ethyl]-2H-[1]-benzothiopyrano[4,3,2-cd]indazole-5-methanaminedihydrochloride hydrate] | 3.6
CCN(CC)CCn1nc2c3c(c(CNS(C)(=O)=O)ccc31)Sc1ccccc1-2 [Ex 11, N-[[2-[2-(Diethylamino)ethyl]-2H-[1]-benzothiopyrano[4,3,2-cd]indazol-5-yl]methyl]methanesulfonamide] | 2.31
CCN(CC)CCn1nc2c3c(c(CNS(C)(=O)=O)ccc31)Sc1ccc(OC)cc1-2 [Ex 12] | 2.2
CCN(CC)CCn1nc2c3c(c(CNC(=O)OC)ccc31)Sc1ccccc1-2 [Ex 13, Methyl N-[[2-[(2-diethylamino)ethyl]-2H-[1]-benzothiopyrano(4,3,2-cd)indazol-5-yl]methyl) carbamate] | 2.5
CCN(CC)CCn1nc2c3c(c(CNC(=O)OC)ccc31)Sc1ccc(OC)cc1-2 [Ex 14] | > 4.5
CCN(CC)CCn1nc2c3c(c(CNS(C)(=O)=O)ccc31)Sc1ccc(O)cc1-2 [Ex 15] | 2.0
CCN(CC)CCNc1ccc(CN(C)S(C)(=O)=O)c2sc3ccccc3c(=O)c12 [WIN33377, reference compound] | 2.0
COc1cc(NS(C)(=O)=O)ccc1Nc1c2ccccc2nc2ccccc12 [mAMSA, reference compound] | 1.5
